Source: the supplement of paper PMC10600219
In all, about 2,800 compounds were measured (“cell viability relative to vehicle”: median about 1.1, lowest 2% from about 0.19 on). The list shows a part of the results.

Tested on: NCI-H2228 parental
Assay: cell viability relative to vehicle (fraction of vehicle); NCI-H2228 is an ALK-positive lung cancer line and DTP means drug-tolerant persister; higher = less growth inhibition
Details: 100 nM; treatment time 6 days
How it was run: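 Each value is viability relative to vehicle-treated cells, measured as ATP with the CellTiter-Glo 3D Cell Viability Assay. Parental NCI-H2228 cells and drug-tolerant persisters (1000 nM targeted drug, 13 days) in 384-well plates received the 3114-agent TargetMol anti-cancer compound library at 100 nM, or DMSO, and were read 6 days later.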

SMILES	cell viability
Cc1ccc(NC(=O)C2(c3ccc4c(c3)OC(F)(F)O4)CC2)nc1-c1cccc(C(=O)O)c1 [Lumacaftor]	1.19
O=C(NN=Cc1c(O)ccc2ccccc12)c1ccncc1	0.84
C[C@H]1[C@H](C)CC[C@]2(C(=O)O[C@@H]3O[C@H](CO[C@@H]4O[C@H](CO)[C@@H](O[C@@H]5O[C@H](C)[C@H](O)[C@@H](O)[C@H]5O)[C@H](O)[C@H]4O)[C@@H](O)[C@H](O)[C@H]3O)CC[C@]3(C)C(=CC[C@@H]4[C@@]5(C)C[C@@H](O)[C@H](O)[C@@](C)(CO)[C@@H]5CC[C@]43C)[C@H]12 [Asiaticoside]	1.11
C=C1CC/C=C(\C)CC[C@@H]2[C@@H]1CC2(C)C [β-Caryophyllene]	0.986
OCCOc1ccc(/C(=C(/CCCl)c2ccccc2)c2ccccc2)cc1 [Ospemifene]	1.08
CC(C)OC(=O)C(C)(C)Oc1ccc(C(=O)c2ccc(Cl)cc2)cc1 [Fenofibrate]	1.05
CC=CC1=C(C(=O)O)N2C(=O)[C@@H](NC(=O)[C@H](N)c3ccc(O)cc3)[C@H]2SC1 [Cefprozil hydrate]	0.984
Nc1nc(OCC2CCCCC2)c2[nH]cnc2n1	1.03
CCn1c(-c2nonc2N)nc2c(C#CC(C)(C)O)ncc(OC[C@H]3CCCNC3)c21	0.94
NS(=O)(=O)c1ccc(S(=O)(=O)Nc2cccc3c(Cl)c[nH]c23)cc1 [Indisulam]	0.949
CCN(CC)CCOc1ccc(Nc2ncc3cc(-c4c(Cl)cccc4Cl)c(=O)n(C)c3n2)cc1	0.362
CN1C(=O)C(Cc2c[nH]c3ccccc23)NC1=S (stereo not drawn) [Necrostatin-1]	1
CC1(C)C(O[C@@H]2OC[C@@H](O)[C@H](O)[C@H]2O)CC[C@]23CC24CC[C@]2(C)[C@@H]([C@@]5(C)CC[C@@H](C(C)(C)O)O5)[C@H](O)C[C@@]2(C)C4C[C@@H](O[C@@H]2O[C@H](CO)[C@@H](O)[C@H](O)[C@H]2O)C13 (stereo partly drawn) [Astragaloside IV]	0.927
COc1cc2ncnc(Nc3cccc(Cl)c3)c2cc1OC	0.877
Cc1[nH]nc(C(F)(F)F)c1Cc1sc2c(c1C(=O)N1C[C@](C)(O)CO1)c(=O)n(C)c(=O)n2C(C)C	1.06
O=c1oc2cc(O)ccc2s1 [Tioxolone]	1.17
O=C(O)c1ccccc1O [Salicylic acid]	0.999
Nc1ncnc2c1ncn2C1OC(COP(=O)(O)O)C(O)C1O (stereo not drawn) [Adenosine 5'-monophosphate monohydrate]	1.09
COc1cc2ncnc(-n3nc(-c4ccccn4)nc3N)c2cc1OC	1.04
CS(=O)(=O)c1ccc(-c2nnc(/C=C/c3nnc(-c4ccc(C#N)cc4)o3)n2-c2ccccc2Cl)nc1	0.803
COC(=O)c1ccc(O)c(OC)c1 [Methyl Vanillate]	1.18
O=C(O)[C@H](CC(=O)N1C[C@H]2CCCC[C@H]2C1)Cc1ccccc1 [Mitiglinide calcium]	1.14
C[C@]12CCC3=C4CCC(=O)C=C4CC[C@H]3[C@@H]1CC[C@@]2(O)CC#N [Dienogest]	1.25
COc1c(O)cc2oc(-c3ccccc3)cc(=O)c2c1O [Oroxylin A]	1.09

SMILES	cell viability
NC(=O)c1ccc(I)c([N+](=O)[O-])c1 [Iniparib]	1.15
c1ccc(-c2oc3ncnc(NC[C@@H]4CCCO4)c3c2-c2ccccc2)cc1	1.06
C#C[C@]1(O)CC[C@H]2[C@@H]3CCC4=CC(=O)CC[C@@H]4[C@H]3C(=C)C[C@@]21CC [Etonogestrel]	1.07
O=C(O)c1cc(/N=N/c2ccc(S(=O)(=O)Nc3ccccn3)cc2)ccc1O [Sulfasalazine]	0.845
CCCCCCCCCCCCCCCC(=O)O [Palmitic acid]	1.02
N#C/C(=C\c1ccc(O)c(O)c1)C(=O)NCCCc1ccccc1	1.05
C/C(=C\C(=O)OCCCCCCCCC(=O)O)C[C@@H]1OC[C@H](C[C@@H]2O[C@H]2[C@@H](C)[C@H](C)O)[C@@H](O)[C@H]1O [Mupirocin]	1.29
Cc1cn([C@H]2C[C@H](O)[C@@H](COP(=O)(O)OP(=O)(O)OP(=O)(O)O)O2)c(=O)[nH]c1=O [Deoxythymidine triphosphate]	1.06
O=C(O)c1cc(N(Cc2ccccc2O)Cc2cc(O)ccc2O)ccc1O [lavendustin A]	0.845
COc1ccc(S(=O)(=O)N(Cc2cccnc2)[C@@H](C(=O)NO)C(C)C)cc1	1.12
COc1ccc(C2=N[C@@H](c3ccc(Cl)cc3)[C@@H](c3ccc(Cl)cc3)N2C(=O)N2CCNC(=O)C2)c(OC(C)C)c1 [Nutlin3]	1.1
COc1ccc(C2=N[C@@H](c3ccc(Cl)cc3)[C@@H](c3ccc(Cl)cc3)N2C(=O)N2CCNC(=O)C2)c(OC(C)C)c1 [Nutlin-3a]	1.03
CN/C(=N\CCSCc1nc[nH]c1C)NC#N [Cimetidine]	1.07
COc1ccc2cc([C@H](C)C(=O)O)ccc2c1 [Naproxen]	0.992
O=[N+]([O-])c1ccc(Nc2ccccc2-c2ccccc2)c2nonc12	0.948
C[C@]12CCC(=O)C=C1[C@@H]1C[C@@H]1[C@H]1[C@@H]3[C@@H]4C[C@@H]4[C@@]4(CCC(=O)O4)[C@@]3(C)CC[C@@H]12 [Drospirenone]	1.22
COc1ccc2c3ccnc4ccc(=O)n(c2c1)c43 [9-Methoxycanthin-6-one]	1.03
Nc1cc(N2CCCCC2)nc(N)[n+]1[O-] [Minoxidil]	1.14
OCCn1cc(-c2cnc3nnn(Cc4ccc5ncccc5c4)c3n2)cn1	1.04
CC1=C(/C=C/C(C)=C/C=C/C(C)=C/CO)C(C)(C)CCC1 [Retinol]	1.07
C/C=C(/C(=C/C)c1ccc(O)cc1)c1ccc(O)cc1 [Dienestrol]	1.15
O=C(O)c1ccccc1OP(=O)(O)O [Fosfosal]	1.23
Cc1ccc(C(=O)Nc2ccc(CN3CCN(C)CC3)c(C(F)(F)F)c2)cc1C#Cc1cnc2[nH]ncc2c1	0.73
Cc1ccc(C(=O)Nc2ccc(CN3CCN(C)CC3)c(C(F)(F)F)c2)cc1C#Cc1cnc2[nH]ncc2c1 [GZD824 Dimesylate]	0.574
